Measurements published in patent US8722849B2, “Polypeptides” (Novo Nordisk A/S, priority 2011, dated 2014).
The name of at least one read-out is uncertain. Starred links: 1 amine or outer side, 2 acyl side, 3 side chain; linkers in the order of their positions; H or OH if unused. Positions of bridges follow the written chain, without caps; N, C: chain ends. Residues, ends and D or L forms follow the SMILES beside them. *: point of attachment. C20 diacid = O=C(O)CCCCCCCCCCCCCCCCCCC(=O)*; C18 diacid = O=C(O)CCCCCCCCCCCCCCCCC(=O)*; γGlu = O=C(O)[C@H](CCC(=O)[*:2])N[*:1]

experiment: Assay (III) ThT fibrillation assay for physical stability; assay type: physicochemical; settings: ThT fibrillation assay
Method in brief: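 Freshly prepared formulations, pH-adjusted, with 1 μM ThT; four or eight replicates incubated at 37 °C under 960 rpm orbital shaking. Fluorescence (ex 444/em 485 nm) read every 20 min; […]. Peptide concentration measured by RP-HPLC before and after the run.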

Compound	ThT pH 4.0 recovery (%)	ThT pH 4.0 recovery [%]
CC[C@H](C)[C@H](NC(=O)[C@@H]1CCCN1C(=O)CNC(=O)[C@H](Cc1ccccc1)NC(=O)[C@H](CC(N)=O)NC(=O)[C@H](CC(N)=O)NC(=O)[C@H](CO)NC(=O)[C@H](CO)NC(=O)[C@H](Cc1c[nH]cn1)NC(=O)[C@H](Cc1c[nH]cn1)NC(=O)[C@H](CC(C)C)NC(=O)[C@H](Cc1ccccc1)NC(=O)[C@H](CCC(=O)O)NC(=O)[C@H](C)NC(=O)[C@H](CC(C)C)NC(=O)[C@H](CCCNC(=N)N)NC(=O)[C@H](CCC(N)=O)NC(=O)[C@@H](NC(=O)[C@H](C)NC(=O)[C@@H]1CSSC[C@H](NC(=O)[C@H](Cc2c[nH]cn2)NC(=O)[C@H](Cc2c[nH]cn2)NC(=O)[C@H](Cc2c[nH]cn2)NC(=O)CC[C@H](NC(=O)CCCCCCCCCCCCCCCCCCC(=O)O)C(=O)O)C(=O)N[C@@H](Cc2c[nH]cn2)C(=O)N[C@@H]([C@@H](C)O)C(=O)N[C@@H](C)C(=O)N[C@@H]([C@@H](C)O)C(=O)N1)[C@@H](C)O)C(=O)N[C@@H](CC(C)C)C(=O)N1CCC[C@H]1C(=O)N[C@@H](Cc1c[nH]cn1)C(=O)N[C@H](C(=O)N[C@@H](CC(N)=O)C(=O)N[C@H](C(=O)NCC(=O)N[C@@H](CO)C(=O)N[C@@H](Cc1c[nH]cn1)C(=O)N[C@H](C(=O)N[C@@H](Cc1ccc(O)cc1)C(N)=O)[C@@H](C)O)C(C)C)[C@@H](C)O [Example 33, N-alpha-[(S)-4-Carboxy-4-(19-carboxynonadecanoylamino)butyryl]-His-His-[His1,His3,Glu14,His17,His29,His35]-pramlintide] ({C20 diacid-γGlu}-HHHCHTATCATQRLAEFLHHSSNNFGPILPHTNVGSHTY-NH2; disulfide 4-9 (inferred); C-terminus assumed)	86	
CC[C@H](C)[C@H](NC(=O)[C@@H]1CCCN1C(=O)CNC(=O)[C@H](Cc1ccccc1)NC(=O)[C@H](CC(N)=O)NC(=O)[C@H](CC(N)=O)NC(=O)[C@H](CO)NC(=O)[C@H](CO)NC(=O)[C@H](Cc1c[nH]cn1)NC(=O)[C@H](Cc1c[nH]cn1)NC(=O)[C@H](CC(C)C)NC(=O)[C@H](Cc1ccccc1)NC(=O)[C@H](CCC(=O)O)NC(=O)[C@H](C)NC(=O)[C@H](CC(C)C)NC(=O)[C@H](CCCNC(=N)N)NC(=O)[C@H](CCC(N)=O)NC(=O)[C@@H](NC(=O)[C@H](C)NC(=O)[C@@H]1CSSC[C@H](NC(=O)[C@H](CCCCN)NC(=O)[C@H](Cc2c[nH]cn2)NC(=O)CC[C@H](NC(=O)CCCCCCCCCCCCCCCCC(=O)O)C(=O)O)C(=O)N[C@@H](CC(N)=O)C(=O)N[C@@H]([C@@H](C)O)C(=O)N[C@@H](C)C(=O)N[C@@H]([C@@H](C)O)C(=O)N1)[C@@H](C)O)C(=O)N[C@@H](CC(C)C)C(=O)N1CCC[C@H]1C(=O)N1CCC[C@H]1C(=O)N[C@H](C(=O)N[C@@H](CC(N)=O)C(=O)N[C@H](C(=O)NCC(=O)N[C@@H](CO)C(=O)N[C@@H](Cc1c[nH]cn1)C(=O)N[C@H](C(=O)N[C@@H](Cc1ccc(O)cc1)C(N)=O)[C@@H](C)O)C(C)C)[C@@H](C)O [Example 70, N-alpha-[(S)-4-Carboxy-4-(17-carboxyheptadecanoylamino)butyryl]-His-[Glu14,His17,His35]-pramlintide] ({C18 diacid-γGlu}-HKCNTATCATQRLAEFLHHSSNNFGPILPPTNVGSHTY-NH2; disulfide 3-8 (inferred); C-terminus assumed)	85	85
CC[C@H](C)[C@H](NC(=O)[C@@H]1CCCN1C(=O)CNC(=O)[C@H](Cc1ccccc1)NC(=O)[C@H](CC(N)=O)NC(=O)[C@H](CC(N)=O)NC(=O)[C@H](CO)NC(=O)[C@H](CO)NC(=O)[C@H](Cc1c[nH]cn1)NC(=O)[C@H](Cc1c[nH]cn1)NC(=O)[C@H](CC(C)C)NC(=O)[C@H](Cc1ccccc1)NC(=O)[C@H](CCC(=O)O)NC(=O)[C@H](C)NC(=O)[C@H](CC(C)C)NC(=O)[C@H](CCCNC(=N)N)NC(=O)[C@H](CCC(N)=O)NC(=O)[C@@H](NC(=O)[C@H](C)NC(=O)[C@@H]1CSSC[C@H](NC(=O)[C@H](Cc2c[nH]cn2)NC(=O)[C@H](Cc2c[nH]cn2)NC(=O)[C@H](Cc2c[nH]cn2)NC(=O)CC[C@H](NC(=O)CCCCCCCCCCCCCCCCCCC(=O)O)C(=O)O)C(=O)N[C@@H](CC(N)=O)C(=O)N[C@@H]([C@@H](C)O)C(=O)N[C@@H](C)C(=O)N[C@@H]([C@@H](C)O)C(=O)N1)[C@@H](C)O)C(=O)N[C@@H](CC(C)C)C(=O)N1CCC[C@H]1C(=O)N1CCC[C@H]1C(=O)N[C@H](C(=O)N[C@@H](CC(N)=O)C(=O)N[C@H](C(=O)NCC(=O)N[C@@H](CO)C(=O)N[C@@H](Cc1c[nH]cn1)C(=O)N[C@H](C(=O)N[C@@H](Cc1ccc(O)cc1)C(N)=O)[C@@H](C)O)C(C)C)[C@@H](C)O [Example 31, N-alpha-[(S)-4-Carboxy-4-(19-carboxynonadecanoylamino)butyryl]-His-His-[His1,Glu14,His17,His35]-pramlintide] ({C20 diacid-γGlu}-HHHCNTATCATQRLAEFLHHSSNNFGPILPPTNVGSHTY-NH2; disulfide 4-9 (inferred); C-terminus assumed)	94	94
CC[C@H](C)[C@H](NC(=O)[C@@H]1CCCN1C(=O)CNC(=O)[C@H](Cc1ccccc1)NC(=O)[C@H](CC(N)=O)NC(=O)[C@H](CC(N)=O)NC(=O)[C@H](CO)NC(=O)[C@H](CO)NC(=O)[C@H](Cc1c[nH]cn1)NC(=O)[C@@H](NC(=O)[C@H](CC(C)C)NC(=O)[C@H](Cc1ccccc1)NC(=O)[C@H](CC(N)=O)NC(=O)[C@H](C)NC(=O)[C@H](CC(C)C)NC(=O)[C@H](CCCNC(=N)N)NC(=O)[C@H](CCC(N)=O)NC(=O)[C@@H](NC(=O)[C@H](C)NC(=O)[C@@H]1CSSC[C@H](NC(=O)[C@H](CCCNC(=N)N)NC(=O)CNC(=O)CC[C@H](NC(=O)CCCCCCCCCCCCCCCCCCC(=O)O)C(=O)O)C(=O)N[C@@H](CC(N)=O)C(=O)N[C@@H]([C@@H](C)O)C(=O)N[C@@H](C)C(=O)N[C@@H]([C@@H](C)O)C(=O)N1)[C@@H](C)O)C(C)C)C(=O)N[C@@H](CC(C)C)C(=O)N1CCC[C@H]1C(=O)N1CCC[C@H]1C(=O)N[C@H](C(=O)N[C@@H](CC(N)=O)C(=O)N[C@H](C(=O)NCC(=O)N[C@@H](CO)C(=O)N[C@@H](CC(N)=O)C(=O)N[C@H](C(=O)N1CCC[C@H]1C(N)=O)[C@@H](C)O)C(C)C)[C@@H](C)O [Example 103, N-alpha-[(S)-4-Carboxy-4-(19-carboxynonadecanoylamino)butyryl]-Gly-[Arg1,Pro37]-pramlintide] ({C20 diacid-γGlu}-GRCNTATCATQRLANFLVHSSNNFGPILPPTNVGSNTP-NH2; disulfide 3-8 (inferred))	2	
CC[C@H](C)[C@H](NC(=O)[C@@H]1CCCN1C(=O)CNC(=O)[C@H](Cc1ccccc1)NC(=O)[C@H](CC(N)=O)NC(=O)[C@H](CC(N)=O)NC(=O)[C@H](CO)NC(=O)[C@H](CO)NC(=O)[C@H](Cc1c[nH]cn1)NC(=O)[C@H](Cc1c[nH]cn1)NC(=O)[C@H](CC(C)C)NC(=O)[C@H](Cc1ccccc1)NC(=O)[C@H](CCC(=O)O)NC(=O)[C@H](C)NC(=O)[C@H](CC(C)C)NC(=O)[C@H](CCCNC(=N)N)NC(=O)[C@H](CCC(N)=O)NC(=O)[C@@H](NC(=O)[C@H](C)NC(=O)[C@@H]1CSSC[C@H](NC(=O)CNC(=O)CC[C@H](NC(=O)CCCCCCCCCCCCCCCCCCC(=O)O)C(=O)O)C(=O)N[C@@H](CC(N)=O)C(=O)N[C@@H]([C@@H](C)O)C(=O)N[C@@H](C)C(=O)N[C@@H]([C@@H](C)O)C(=O)N1)[C@@H](C)O)C(=O)N[C@@H](CC(C)C)C(=O)N1CCC[C@H]1C(=O)N1CCC[C@H]1C(=O)N[C@H](C(=O)N[C@@H](CC(N)=O)C(=O)N[C@H](C(=O)NCC(=O)N[C@@H](CO)C(=O)N[C@@H](CC(N)=O)C(=O)N[C@H](C(=O)N1CCC[C@H]1C(N)=O)[C@@H](C)O)C(C)C)[C@@H](C)O [Example 91, N-alpha-[(S)-4-Carboxy-4-(19-carboxynonadecanoylamino)butyryl]-[Gly1,Glu14,His17,Pro37]-pramlintide] ({C20 diacid-γGlu}-GCNTATCATQRLAEFLHHSSNNFGPILPPTNVGSNTP-NH2; disulfide 2-7 (inferred); C-terminus assumed)	0	0
CC[C@H](C)[C@H](NC(=O)[C@@H]1CCCN1C(=O)CNC(=O)[C@H](Cc1ccccc1)NC(=O)[C@H](CC(N)=O)NC(=O)[C@H](CC(N)=O)NC(=O)[C@H](CO)NC(=O)[C@H](CO)NC(=O)[C@H](Cc1c[nH]cn1)NC(=O)[C@H](Cc1c[nH]cn1)NC(=O)[C@H](CC(C)C)NC(=O)[C@H](Cc1ccccc1)NC(=O)[C@H](CCC(=O)O)NC(=O)[C@H](C)NC(=O)[C@H](CC(C)C)NC(=O)[C@H](CCCNC(=N)N)NC(=O)[C@H](CCC(N)=O)NC(=O)[C@@H](NC(=O)[C@H](C)NC(=O)[C@@H]1CSSC[C@H](NC(=O)[C@H](Cc2c[nH]cn2)NC(=O)[C@H](Cc2c[nH]cn2)NC(=O)[C@H](Cc2c[nH]cn2)NC(=O)CC[C@H](NC(=O)CCCCCCCCCCCCCCCCCCC(=O)O)C(=O)O)C(=O)N[C@@H](Cc2c[nH]cn2)C(=O)N[C@@H]([C@@H](C)O)C(=O)N[C@@H](C)C(=O)N[C@@H]([C@@H](C)O)C(=O)N1)[C@@H](C)O)C(=O)N[C@@H](CC(C)C)C(=O)N1CCC[C@H]1C(=O)N1CCC[C@H]1C(=O)N[C@H](C(=O)N[C@@H](CC(N)=O)C(=O)N[C@H](C(=O)NCC(=O)N[C@@H](CO)C(=O)N[C@@H](CC(N)=O)C(=O)N[C@H](C(=O)N[C@@H](Cc1ccc(O)cc1)C(N)=O)[C@@H](C)O)C(C)C)[C@@H](C)O [Example 35, N-alpha-[(S)-4-Carboxy-4-(19-carboxynonadecanoylamino)butyryl]-His-His-[His1,His3,Glu14,His17]-pramlintide] ({C20 diacid-γGlu}-HHHCHTATCATQRLAEFLHHSSNNFGPILPPTNVGSNTY-NH2; disulfide 4-9)	50	
